“And” between values parts separate entries of the source, which are not always exact repeats. Equal entries are not always repeated. The full ranking holds about 110,000 compounds; the median of “z-score” is about -0.1, and the highest 2% start at about 2. This is one part of the list.

For this assay, the target named is Metabotropic glutamate receptor 8 (Rattus norvegicus) (UniProt P70579). The assay can be described thus: rat mGluR8 modulators via GIRK flux, primary screen, cell-based, thallium flux, HTS (AID 488969). Conditions: HEK293 rat mGluR8, GIRK (G protein-gated inwardly rectifying potassium channel) thallium flux, FluoZin2; at 10 µM; stronger effect = higher value; submaximal glutamate (EC20) added with thallium.
UniProt P70579, sequence (P70579 whole entry, looked up): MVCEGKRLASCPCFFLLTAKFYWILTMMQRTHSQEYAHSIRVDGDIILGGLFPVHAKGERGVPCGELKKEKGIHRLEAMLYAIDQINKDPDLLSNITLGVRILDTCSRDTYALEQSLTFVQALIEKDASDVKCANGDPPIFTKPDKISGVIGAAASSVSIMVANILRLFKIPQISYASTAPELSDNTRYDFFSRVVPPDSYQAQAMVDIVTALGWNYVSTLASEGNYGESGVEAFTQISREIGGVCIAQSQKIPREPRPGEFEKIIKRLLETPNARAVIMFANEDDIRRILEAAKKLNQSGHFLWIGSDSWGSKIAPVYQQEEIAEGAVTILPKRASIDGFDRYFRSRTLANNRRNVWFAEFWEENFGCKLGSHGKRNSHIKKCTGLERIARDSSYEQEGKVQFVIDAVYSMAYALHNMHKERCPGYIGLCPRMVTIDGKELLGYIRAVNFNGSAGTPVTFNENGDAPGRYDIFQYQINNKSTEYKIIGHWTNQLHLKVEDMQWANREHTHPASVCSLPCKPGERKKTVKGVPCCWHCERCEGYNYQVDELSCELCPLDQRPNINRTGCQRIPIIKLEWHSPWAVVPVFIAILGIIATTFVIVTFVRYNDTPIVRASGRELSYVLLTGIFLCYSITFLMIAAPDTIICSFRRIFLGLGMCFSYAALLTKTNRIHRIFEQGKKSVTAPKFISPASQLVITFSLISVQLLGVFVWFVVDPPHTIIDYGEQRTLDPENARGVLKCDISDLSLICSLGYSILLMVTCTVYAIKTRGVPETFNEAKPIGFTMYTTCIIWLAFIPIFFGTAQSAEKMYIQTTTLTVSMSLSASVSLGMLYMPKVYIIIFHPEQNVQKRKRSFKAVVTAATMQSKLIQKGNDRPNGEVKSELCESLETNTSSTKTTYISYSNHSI
The compound `CC(NC(=O)c1ccc(F)cc1)C(c1cccs1)N1CCN(C)CC1` (stereo not given) had a z-score of 0.156.

Take `CCOC(=O)CCCNC(=O)CCNC(=O)c1ccc(OC(C)C)cc1`: the z-score was determined as 0.206.

On to `CNc1nnc(CSc2nc3ccccc3s2)s1`, for which the z-score came out at 0.0158.

On to `Cc1ccc(S(=O)(=O)[N-]c2nc3ccccc3nc2-n2cc[n+](CCC(C)C)c2)cc1`, for which the z-score is -0.459.

The compound `CCCN1CCN(CCCNC(=O)CCNC(=O)Cn2ccc3ccccc3c2=O)CC1` gave a z-score of -0.163.

For the compound `Cc1cccc(-c2csc(NC(=O)c3cnccn3)c2C(=O)OC(C)C)c1`, the z-score worked out at 0.7.

Turning to `O=C(NC1CCCC1)C(c1ccccc1)N(C(=O)c1ccco1)C1CCCC1` (stereo not given), the z-score is -0.756.

As to `CCOC(=O)N1CCN(S(=O)(=O)c2cc(OCC(N)=O)c(C)cc2Cl)CC1`, the z-score came out at 0.145.

In the case of `CCOc1ccc(N=Cc2c(O)cc(C)oc2=O)cc1`, the z-score was -0.173.

In the case of `O=C(CCCOc1ccccc1)Nc1ccc(S(=O)(=O)N2CCOCC2)cc1`, the z-score is -0.379.

As for `COc1ccccc1-c1nc(C#N)c(N2CCN(c3ccccc3)CC2)o1`, the z-score was -0.158.

`COc1ccc(S(=O)(=O)NCc2ccccn2)c(Cl)c1Cl` displayed a z-score of 0.145.

Compound `O=C(O)C1CCCCC1C(=O)Nc1cccc(C(=O)N2CCCCC2)c1` (stereo not given) had a z-score of -0.189.

Turning to `CCOC(=O)C1=C(c2ccccc2)NC(SCC(=O)Nc2cccc(C)c2)=C(C#N)C1c1ccco1` (stereo not given), the z-score was -0.432.

In turn, `O=C(Nc1ccc(F)cc1)C(c1ccccc1)N1CCN(C(=O)c2ccco2)CC1` (stereo not given) showed a z-score of -0.404.

In the case of `CC1=NNC(=O)C1CCC(=O)N/N=C\c1ccccc1[N+](=O)[O-]` (stereo not given), the z-score is -0.336.

For `COc1cc(/C=N/NC(=O)c2sc(N)c(C#N)c2C)cc(Br)c1O`, the z-score was -0.544.

As to `O=[N+]([O-])c1nn(-c2ccc3c(c2)OCCO3)n(O)c1=NC1CCCCC1`, the z-score was -0.7.

Consider `O=C(NS(=O)(=O)c1ccc2c(c1)OCCO2)c1ccccc1`, for which the z-score is -0.389.

Compound `O=C(CSc1nc2ccccc2c(=O)n1-c1ccc(F)cc1)Nc1ccc2c(c1)CCC2` had a z-score of -0.356.

With `CCOc1ccc2nc(NS(=O)(=O)Cc3ccccc3)sc2c1`, the z-score is 0.192.

`CCn1cc(C(=O)NC(=S)Nc2cccc(O)c2)cn1` came in with a z-score of -0.169.

With `Cc1noc(COc2ccccc2OCC(O)CNC(C)(C)C)n1` (stereo not given), the z-score is 0.12.

The compound `CCc1nnc(NC(=O)c2ccc(S(=O)(=O)NC3CCCCC3)cc2)s1` yielded a z-score of 0.217.

Turning to `O=C(CCC1CCCCC1)Nc1ncn[nH]1`, the z-score is 0.302.

`COc1ccccc1-c1cc(C(=O)N/N=C/c2cccs2)c2ccccc2n1` returned a z-score of -0.163.

For the compound `CC(C)(C)n1nnnc1C(c1ccc(Cl)cc1)N(Cc1cccnc1)Cc1ccco1` (stereo not given), the z-score turned out to be 0.14.

`O=C(Cn1c(NCCCO)nc2ccccc21)c1ccco1` registered a z-score of -0.0827.

`O=C(CSc1nc(-c2ccccc2)nc2c1CCCC2)N1CCOCC1` gave a z-score of -0.533.

As for `O=C(CN1C(=O)c2ccccc2C1=O)Nc1cccc(S(=O)(=O)Nc2ccccc2Cl)c1`, the z-score is -0.343.

For `Cc1ccccc1Nc1nc(N)nc(CSc2nc3ccccc3s2)n1`, the z-score amounted to 0.0755.

On to `O=[N+]([O-])c1ccc(N2CCN(S(=O)(=O)c3ccccc3[N+](=O)[O-])CC2)cc1N1CCc2ccccc2C1`, for which the z-score was -0.00158.

Turning to `CC(=O)c1cccc(NC(=O)CSc2ccc(-c3ccc4c(c3)OCO4)nn2)c1`, the z-score is -0.27.

Take `CCCCNc1nc2c(c(=O)n(C)c(=O)n2C)n1Cc1cccc(OC)c1`: the z-score is -1.56.

With `COc1ccc(N2CCN(C(=O)CN(Cc3ccc(Cl)cc3)S(C)(=O)=O)CC2)cc1`, the z-score was found to be 0.0425.

`COc1ccc2[nH]c(C)c(C(=O)CN3CC(C)OC(C)C3)c2c1` (stereo not given): the z-score was determined as 2.96.

As to `CCOC(=O)c1[nH]c(C)c(CCC(=O)O)c1C`, the z-score was -0.119 and -0.103.

`CS(=O)(=O)N1CCN(c2cccc(Cl)n2)CC1` yielded a z-score of 0.0109.

Turning to `COC(=O)c1nc2ccccc2s1`, the z-score was -0.349.

With `Cn1nnnc1SCSc1nnnn1C`, the z-score was -0.163.

As to `CCCC1(CCC)C(=O)NC(=NCCc2ccc(OC)c(OC)c2)NC1=O`, the z-score is -0.0922.

`CCOC(=O)/C(C#N)=C1\C=CN(C)C(C)=N1` yielded a z-score of -0.205.

Regarding `Cc1cc(Nc2nnnn2-c2ccccc2)n(-c2ccc(Cl)cc2)n1`, the z-score is -0.187.

`O=C(NC1CCCC1)C(c1ccsc1)N(C(=O)Cc1cccs1)c1cccc(F)c1` (stereo not given) registered a z-score of -0.187.

For `O=C(CNC(=O)c1ccc(N2C(=O)c3ccccc3C2=O)cc1)OCC(=O)c1ccc(Cl)cc1`, the z-score came out at 0.702.

Consider `Cc1cc(Br)c(Cl)cc1NC(=O)CN1C(=O)C2C3CC(c4ccccc4)C(C3)C2C1=O` (stereo not given), for which the z-score is -0.22.

Compound `CC(NC(=O)COc1ccc(Br)cc1)C(=O)O` (stereo not given) came in with a z-score of -0.000757.

In turn, `Cc1oc(-c2ccc(Cl)cc2)nc1CN1CCCC(C(=O)N2CCN(C(=O)c3ccco3)CC2)C1` (stereo not given) gave a z-score of -0.175.

Compound `O=C1CCCc2nc3nc4ccccc4n3cc21` showed a z-score of -0.489.

Compound `FC(F)(F)c1nc2ccccc2n2c(-c3c(Cl)cccc3Cl)nnc12` came in with a z-score of -0.39.

On to `Cc1ccc(-c2[nH]nc3c2C(c2ccccc2OC(=O)N2CCOCC2)C(C#N)=C(N)O3)cc1` (stereo not given), for which the z-score is 0.221.

Compound `Cn1c(-c2ccc(N)cc2)nc2ccccc21` displayed a z-score of -0.294.

`CCC1S/C(=N\S(=O)(=O)c2cccs2)N(C2CCCCC2)C1=O` (stereo not given): the z-score came to 0.599.

On to `O=C(Nc1ccccc1)c1sc(N2CCOCC2)nc1-c1ccccc1`, for which the z-score is -0.556.

Regarding `COC(=O)c1sc2nc(-c3ccco3)ccc2c1N`, the z-score worked out at 2.53.

With `O=C1N2CN(C(c3ccccc3)c3ccccc3)CN=C2SC1(CO)CO`, the z-score is -0.197.

As to `O=C(Oc1cccc2cccnc12)c1cccs1`, the z-score was -0.532.

`Cc1ccc(S(=O)(=O)N/N=C/c2cccc(OC3CSC3)c2)cc1` came in with a z-score of -0.12.

Regarding `CC(C(=O)N1c2ccccc2CCc2ccccc21)n1nnc(-c2ccc(N(C)C)cc2)n1` (stereo not given), the z-score is 0.255.

In turn, `C/C(=N\NC(=O)CSc1nc(C)cc(C)n1)c1cccc([N+](=O)[O-])c1` gave a z-score of -0.26.

Turning to `COCCCNC(=O)c1cccc(C(=O)NCCCOC)c1`, the z-score came out at 0.176.

For `O=S(=O)(c1ccc2c(c1)OCCO2)N1CCC(c2nc3ccc(Cl)cc3[nH]2)CC1`, the z-score is -1.35.

`CC1CN(Cc2ccc(C#N)cc2Cl)CC(C)O1` (stereo not given) yielded a z-score of 0.188.

For `c1ccc(-c2nc3ccccc3nc2-c2ccccn2)nc1`, the z-score was -0.18.

Compound `O=C(CCNc1ccc(F)c(Cl)c1)c1ccco1` registered a z-score of -0.0492.

Regarding `O=C1CCCC2=C1C(c1ccsc1)CC(=O)N2c1ccccc1` (stereo not given), the z-score was -0.654.

`COc1ccccc1N1CCN(C(=O)C(Cc2ccccc2)NC(=O)C2CCCCC2)CC1` (stereo not given) registered a z-score of -0.152.

Compound `O=C(Cn1cnc2c(nnn2-c2ccc(F)cc2)c1=O)N1CCCc2ccccc21` returned a z-score of -0.225.

On to `Cc1ccccc1-c1nc(CN2CCC(C(=O)NCC3CCCO3)CC2)c(C)o1` (stereo not given), for which the z-score is -0.924.

As to `Cc1cccc(NC(=O)/C(=C/c2cccc([N+](=O)[O-])c2)NC(=O)c2cccs2)c1`, the z-score was -0.136.

The compound `COc1ccc(C(=O)Nc2c(Cl)cc(Cl)cc2C(=O)NCc2ccco2)cc1` gave a z-score of 0.018.

Regarding `COc1ccc(S(=O)(=O)Nc2ccc(F)c(F)c2)cc1Cl`, the z-score worked out at 0.0596.

Regarding `CCc1ccc(CCC(=O)Nc2nc(CC(C)=O)ns2)o1`, the z-score was -0.328.

Regarding `CCc1cccc2c(C=C(C#N)C#N)cn(CC(=O)N3CCCCC3)c12`, the z-score was 0.0776.

As to `Cc1c(O)nc(SCC(=O)Nc2ccc3c4c(cccc24)CC3)n(-c2ccccc2)c1=O`, the z-score is -0.768.

For `Cc1nn2cc(-c3ccccc3)nc2[nH]c1=O`, the z-score was -0.356.

`CCOCCn1c(-c2ccc(OC)cc2)nc2ccccc21` had a z-score of -0.61.

Regarding `O=C(c1ccc(S(=O)(=O)N2CCCCC2)cc1)N1CCN(Cc2ccc3c(c2)OCO3)CC1`, the z-score was -0.213.

Compound `Cc1cccc(OCCCOc2cccc3cccnc23)c1C` showed a z-score of -0.0288.

In the case of `O=C1NC(=O)/C(=C\c2ccccc2Oc2ccc(F)c(F)c2)S1`, the z-score is -0.312.

`O=C(O)c1ccccc1CSc1nc2ccccc2o1` showed a z-score of -0.428.

As to `Cn1c(=O)n(CCC(=O)O)c2ccccc21`, the z-score was 0.0564.

Compound `Cc1ccc(Cl)cc1N1CCN(c2cccc[n+]2C)CC1` displayed a z-score of -0.306.

Turning to `COC(=O)c1ccccc1NC(=O)C1CCN(S(C)(=O)=O)CC1`, the z-score is 0.371.

The compound `Cc1sc2nnn(CC(=O)N3CCN(C(=O)c4ccco4)CC3)c(=O)c2c1C` came in with a z-score of 0.22.

`COc1cc(C)c(Cl)c(C)c1S(=O)(=O)NCc1cccnc1` registered a z-score of 0.0631.

For the compound `COc1ccc(OC)c(C(=O)COC(=O)c2ccccc2O)c1`, the z-score is 0.0993.

Consider `COC(=O)c1c(NC(=O)c2nc3nc(C)cc(C(F)F)n3n2)sc2c1CCC2`, for which the z-score was -0.194.

For `O=c1oc2ccccc2c(N2CCCCC2)c1CN1CCCC1`, the z-score is 0.0491.

The compound `COP(=O)(OC)C(Nc1ccc(C)cc1)c1ccc([N+](=O)[O-])cc1` (stereo not given) gave a z-score of 0.0422.

Compound `C=CCOc1cccc(/C=N/NC(=O)CN(c2cc(Cl)ccc2OC)S(=O)(=O)c2ccc(C)c([N+](=O)[O-])c2)c1` registered a z-score of -0.0532.

The compound `Cc1ccc(N2C(=O)N(CC(=O)N3CCCc4ccccc43)C(=O)C2C)cc1` (stereo not given) gave a z-score of -0.267.

With `NS(=O)(=O)c1ccc(NCc2cc(Cl)ccc2OCc2ccc(F)cc2)cc1`, the z-score was -0.563.

With `O=C(CCS(=O)(=O)c1ccc(Br)s1)N1CCc2ccccc21`, the z-score turned out to be 0.863.

Compound `COc1ccc(-c2cc(C(=O)n3cnc4ccccc43)c3ccccc3n2)cc1` registered a z-score of -0.115.

Consider `CC1CN(C2CCN(C(=O)COc3ccc(Cl)cc3)CC2)CC(C)O1` (stereo not given), for which the z-score amounted to 0.0882.

`CCOC(=O)CCNC(C)C1COc2ccccc2O1` (stereo not given) yielded a z-score of 0.297.

As to `Cc1ccc(S(=O)(=O)NCC(=O)NC2CCCCCC2)cc1`, the z-score was 0.858.

Take `COc1ccccc1NC(=O)CSc1nnnn1-c1ccc(C)cc1`: the z-score is -0.183.

`CCCCc1c(C)nc2ccccc2c1SCCC#N` gave a z-score of -0.338.

Turning to `Cc1ccc(S(=O)(=O)NCC(c2cccnc2)N(C)C)cc1` (stereo not given), the z-score is -0.209.

On to `Cc1ccc(N2CC(C(=O)NCc3cccnc3)CC2=O)cc1` (stereo not given), for which the z-score turned out to be 0.0646.

`CCOC(=O)C1=C(CN2CCN(c3ccc(F)cc3)CC2)NC(=O)NC1c1cccs1` (stereo not given) showed a z-score of -1.46.

Take `Cn1c(=O)c2c(nc(CN3CCN(Cc4ccccc4)CC3)n2CCN2CCOCC2)n(C)c1=O`: the z-score was 0.778.

Compound `COc1cccc(C(c2sc3ncnn3c2O)N2CC(C)OC(C)C2)c1` (stereo not given) displayed a z-score of 1.01.

For `COc1ccc(CN2CCn3ncc(C(=O)Nc4ccccc4)c3C2=O)cc1`, the z-score was -0.121.

In turn, `CCCCCNC(=O)c1ccccc1SC` returned a z-score of 0.0023.

Compound `Clc1ccc(SCCCCn2ccnc2)cc1` registered a z-score of 0.598.

`CCc1nnc(NC(=O)c2ccc(-c3cc(C(F)(F)F)ccc3Cl)o2)s1` displayed a z-score of -0.484.

Take `Cc1cc(NC(=O)CSc2nc3ccsc3c(=O)n2CCCCC(=O)O)no1`: the z-score was -0.312.

Source of the values: PubChem BioAssay AID488969 (Vanderbilt High Throughput Screening Facility, 2010).
